# From the supplement of paper PMC12217912
# The list shows a part of the results. The full chains were built here from the parent and the listed change. Values near 0.05 are background.
# B1: TEV protease; numbered along this chain (parent)
# chain: MGESLFKGPRDYNPISSSICHLTNESDGHTTSLYGIGFGPFIITNKHLFRRNNGTLVVQSLHGVFKVKDTTTLQQHLVDGRDMIIIRMPKDFPPFPQKLKFREPQREERICLVTTNFQTKSMSSMVSDTSCTFPSGDGIFWKHWIQTKDGQCGSPLVSTRDGFIVGIHSASNFTNTNNYFTSVPKNFMELLTNQEAQQWVSGWRLNADSVLWGGHKVFMVKPEEPFQPVKEATQL
# Variants of: B1
# Test: raw area under fraction-flipped curve 0-4 h after induction (AUC4h, not background-subtracted), DNA-recorder readout of cleavage of the substrate (dimensionless); higher = more cleavage of the substrate by the protease variant
# Conditions: temperature: 34 °C; time window: 0-4 h after rhamnose induction
# Method: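 In vivo DNA recorder in E. coli TOP10(DE3) ΔrhaA at 34 °C. Each TEVp single-site mutant (parent TEVp 0) is paired with a single-site variant of the 7-mer TEVs (canonical ENLYFQ|S). The substrate sits between flexible linkers in a Bxb1-sfGFP-TEVs-SsrA fusion, so cleavage stabilises Bxb1 and speeds flipping of a recombination array, read by NGS. The value is the raw area under the fraction-flipped curve over 0-4 h after rhamnose induction (AUC4h), with ≥20 reads per time point. It is not background-subtracted; inactive controls average about 0.047.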
# 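Note: Bxb1 expression induced with 0.2% (w/v) L-rhamnose at OD600 near 0.5, cultures sampled hourly, flipped fraction per protease–substrate barcode pair counted by paired-end Illumina sequencing.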
Variant,area with substrate ENLYAQS,area with substrate ENLYDQS,area with substrate ENLYGQS,area with substrate ENLYKQS,area with substrate ENLYNQS,area with substrate ENLYPQS,area with substrate ENLYVQS,area with substrate ENLYCQS,area with substrate ENLYEQS,area with substrate ENLYHQS,area with substrate ENLYQQS,area with substrate ENLYRQS,area with substrate ENLYSQS,area with substrate ENLYWQS,area with substrate ENLYYQS,area with substrate ENLYIQS,area with substrate ENLYLQS,area with substrate ENLYTQS,area with substrate ENLYMQS
MGESLFKGPRDYNPISSSICHLTNESDGHTTSLYGIGFGPFIITNKHLFRRNNGTLVVQSLHGVFKVKDTTTLQQHLVDGRDMIIIRMPKDFPPFPQKLKFREPQREERICLVTTNFQTKSMSSMVSDTSCTFPSGDGIFWKHWIQTKDGQCGSPLVSTRDGFIVGIHSASNFTNTNNYFTSVPKNFMELLTNQEAQQWVSGWRLNADSVLWGGHKVFMVKPETPFQPVKEATQL [E224T],0.0684,0.0642,0.0592,0.075,0.0743,0.0653,0.106,,,,,,,,,,,,
MGESLFKGPRDYNPISSSICHLTNESDGHTTSLYGIGFGPFIITNKHLFRRNNGTLVVQSLHGVFKVKDTTTLQQHLVDGRDMIIIRMPKDFPPFPQKLKFREPQREERICLVTTNFQTKSMSSMVSDTSCTFPSGDGIFWKHWIQTKDGQCGSPLVSTRDGFIVGIHSASNFTNTNNYFTSVPKNFMELLTNQEAQQWVSGWRLNADSVLWGGHKVFMVKPEETFQPVKEATQL [P225T],0.0951,0.0659,0.0766,0.0394,0.0649,0.0765,0.107,0.0903,0.0729,0.0584,0.057,0.0638,0.0746,0.0704,0.0363,,,,
MGESLFKGPRDYNPISSSICHLTNESDGHTTSLYGIGFGPFIITNKHLFRRNNGTLVVQSLHGVFKVKDTTTLQQHLVDGRDMIIIRMPKDFPPFPQKLKFREPQREERICLVTTNFQTKSMSSMVSDTSCTFPSGDGIFWKHWIQTKDGQCGSPLVSTRDGFIVGIHSASNFTNTNNYFTSVPKNFMELLTNQEAQQWVSGWRLNADSVLWGGHKVFMVKPEEPYQPVKEATQL [F226Y],0.0736,0.0685,,0.0543,0.061,0.0811,0.137,,0.063,0.067,,0.0537,0.0712,0.0931,,0.146,,,
MGESLFKGPRDYNPISSSICHLTNESDGHTTSLYGIGFGPFIITNKHLFRRNNGTLVVQSLHGVFKVKDTTTLQQHLVDGRDMIIIRMPKDFPPFPQKLKFREPQREERICLVTTNFQTKSMSSMVSDTSCTFPSGDGIFWKHWIQTKDGQCGSPLVSTRDGFIVGIHSASNFTNTNNYFTSVPKNFMELLTNQEAQQWVSGWRLNADSVLWGGHKVFMVKPEEPFQNVKEATQL [P228N],0.0732,0.0556,0.0717,,,0.0704,0.108,,0.0627,0.0918,0.0769,,0.08,0.1,0.0635,0.109,0.083,0.0773,
MGESLFKGPRDYNPISSSICHLTNESDGHTTSLYGIGFGPFIITNKHLFRRNNGTLVVQSLHGVFKVKDTTTLQQHLVDGRDMIIIRMPKDFPPFPQKLKFREPQREERICLVTTNFQTKSMSSMVSDTSCTFPSGDGIFWKHWIQTKDGQCGSPLVSTRDGFIVGIHSASNFTNTNNYFTSVPKNFMELLTNQEAQQWVSGWRLNADSVLWGGHKVFMVKPEEPFQPHKEATQL [V229H],0.072,,0.0357,,0.0896,0.0771,0.102,0.111,0.0427,0.0478,,,,,,,,0.0759,0.101
MGESLFKGPRDYNPISSSICHLTNESDGHTTSLYGIGFGPFIITNKHLFRRNNGTLVVQSLHGVFKVKDTTTLQQHLVDGRDMIIIRMPKDFPPFPQKLKFREPQREERICLVTTNFQTKSMSSMVSDTSCTFPSGDGIFWKHWIQTKDGQCGSPLVSTRDGFIVGIHSASNFTNTNNYFTSVPKNFMELLTNQEAQQWVSGWRLNADSVLWGGHKVFMVKPEEPFQPVKMATQL [E231M],0.0498,0.0708,,0.0435,0.0792,0.0737,0.119,,0.0636,0.0609,,0.066,,0.0835,,0.0996,,,0.0894
MGESLFKGPRDYNPISSSICHLTNESDGHTTSLYGIGFGPFIITNKHLFRRNNGTLVVQSLHGVFKVKDTTTLQQHLVDGRDMIIIRMPKDFPPFPQKLKFREPQREERICLVTTNFQTKSMSSMVSDTSCTFPSGDGIFWKHWIQTKDGQCGSPLVSTRDGFIVGIHSASNFTNTNNYFTSVPKNFMELLTNQEAQQWVSGWRLNADSVLWGGHKVFMVKPEEPFQPVKEPTQL [A232P],0.0739,0.0485,,,0.0763,0.116,0.133,,0.0606,0.0692,,0.0807,0.0631,0.0952,,,,0.0953,
MGESLFKGPRDYNPISSSICHLTNESDGHTTSLYGIGFGPFIITNKHLFRRNNGTLVVQSLHGVFKVKDTTTLQQHLVDGRDMIIIRMPKDFPPFPQKLKFREPQREERICLVTTNFQTKSMSSMVSDTSCTFPSGDGIFWKHWIQTKDGQCGSPLVSTRDGFIVGIHSASNFTNTNNYFTSVPKNFMELLTNQEAQQWVSGWRLNADSVLWGGHKVFMVKPEEPFQPVKEADQL [T233D],0.0828,0.0614,0.0674,0.0796,0.0683,,0.109,,0.0772,0.065,0.0823,,0.0855,0.0822,,,0.102,,0.118
MGEKLFKGPRDYNPISSSICHLTNESDGHTTSLYGIGFGPFIITNKHLFRRNNGTLVVQSLHGVFKVKDTTTLQQHLVDGRDMIIIRMPKDFPPFPQKLKFREPQREERICLVTTNFQTKSMSSMVSDTSCTFPSGDGIFWKHWIQTKDGQCGSPLVSTRDGFIVGIHSASNFTNTNNYFTSVPKNFMELLTNQEAQQWVSGWRLNADSVLWGGHKVFMVKPEEPFQPVKEATQL [S4K],,0.0238,,,0.0622,0.0795,0.155,0.117,0.0619,0.0606,0.0836,0.0702,0.0781,0.117,0.0654,0.144,0.0599,,
MGEPLFKGPRDYNPISSSICHLTNESDGHTTSLYGIGFGPFIITNKHLFRRNNGTLVVQSLHGVFKVKDTTTLQQHLVDGRDMIIIRMPKDFPPFPQKLKFREPQREERICLVTTNFQTKSMSSMVSDTSCTFPSGDGIFWKHWIQTKDGQCGSPLVSTRDGFIVGIHSASNFTNTNNYFTSVPKNFMELLTNQEAQQWVSGWRLNADSVLWGGHKVFMVKPEEPFQPVKEATQL [S4P],,0.0486,0.0637,0.0529,0.0628,0.0809,0.108,0.0943,0.0673,0.0566,0.0174,,0.0788,0.0749,0.0626,0.153,0.0679,0.0856,0.0809
